The list shows a part of the results. The energies were worked out here from pooled read counts, against the library average; single values are noisy.

This assay has as its target T1, Pho4 (S. cerevisiae) (UniProt P07270).
T1 sequence: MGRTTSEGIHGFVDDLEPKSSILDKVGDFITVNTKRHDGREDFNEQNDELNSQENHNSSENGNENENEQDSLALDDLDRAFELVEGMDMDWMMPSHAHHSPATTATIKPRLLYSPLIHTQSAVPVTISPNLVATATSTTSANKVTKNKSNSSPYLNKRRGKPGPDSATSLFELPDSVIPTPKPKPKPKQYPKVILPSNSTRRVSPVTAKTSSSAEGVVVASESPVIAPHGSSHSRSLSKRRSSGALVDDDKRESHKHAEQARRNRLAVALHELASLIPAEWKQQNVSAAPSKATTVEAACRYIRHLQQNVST
Briefly: relative binding free energy (BET-seq); higher = weaker binding. The following applies: reference: library average.
Turning to TATATCACGTGTCTAG, the “relative binding free energy” value worked out at 0.19 kcal/mol.

On to TGCGGCACGTGGGCGC, for which the “relative binding free energy” value was -0.32 kcal/mol.

CCTGTCACGTGTGGAG: the “relative binding free energy” value amounted to 0.09 kcal/mol.

Consider TGGCACACGTGGGGGT, for which the “relative binding free energy” value was determined as 0.01 kcal/mol.

As for TCTATCACGTGTTTGA, the “relative binding free energy” value was 0.15 kcal/mol.

On to GCTTGCACGTGATAGG, for which the “relative binding free energy” value was found to be 0.08 kcal/mol.

Turning to TGCTTCACGTGTAGGC, the “relative binding free energy” value came out at 0.16 kcal/mol.

AGGTTCACGTGTCGAG: the “relative binding free energy” value amounted to 0.36 kcal/mol.

Consider GTGGTCACGTGGTTTA, for which the “relative binding free energy” value stood at 0.13 kcal/mol.

Take GGCAGCACGTGTAAGG: the “relative binding free energy” value was -0.02 kcal/mol.

Regarding TTTTACACGTGTCCTG, the “relative binding free energy” value came to 0.12 kcal/mol.

For CAATGCACGTGTTGTG, the “relative binding free energy” value stood at 0 kcal/mol.

For the sequence TGGATCACGTGTTGCT, the “relative binding free energy” value is 0.12 kcal/mol.

With TTAGGCACGTGTAATG, the “relative binding free energy” value was -0.14 kcal/mol.

Take AATATCACGTGTGTAA: the “relative binding free energy” value came to 0.15 kcal/mol.

Consider CAAATCACGTGGAGGG, for which the “relative binding free energy” value was 0.13 kcal/mol.

In the case of AATTGCACGTGAAGGC, the “relative binding free energy” value turned out to be 0.23 kcal/mol.

Take TTTGACACGTGTATTG: the “relative binding free energy” value was 0.07 kcal/mol.

Regarding CAGTGCACGTGGGTCT, the “relative binding free energy” value was determined as 0.05 kcal/mol.

For TCTGGCACGTGGGGTC, the “relative binding free energy” value was -0.14 kcal/mol.

Turning to TGGCACACGTGGAAGG, the “relative binding free energy” value worked out at 0.17 kcal/mol.

On to AATTTCACGTGCATGT, for which the “relative binding free energy” value was found to be 0.13 kcal/mol.

Regarding GTTGTCACGTGTAAAA, the “relative binding free energy” value turned out to be 0.3 kcal/mol.

As for TCAAGCACGTGTAGTT, the “relative binding free energy” value is -0.08 kcal/mol.

Take TTTGACACGTGGATAC: the “relative binding free energy” value came out at 0.08 kcal/mol.

For TTCTGCACGTGTCTGT, the “relative binding free energy” value was 0.06 kcal/mol.

GGAAACACGTGGGTCT: the “relative binding free energy” value is -0.01 kcal/mol.

Take ATTTACACGTGGGGCT: the “relative binding free energy” value is -0.08 kcal/mol.

Take CGAGACACGTGAGGTT: the “relative binding free energy” value was determined as 0.25 kcal/mol.

On to GTGTCCACGTGGCGGA, for which the “relative binding free energy” value is 0.07 kcal/mol.

For TGAATCACGTGGCTAG, the “relative binding free energy” value was 0.22 kcal/mol.

TATTGCACGTGAGGGT: the “relative binding free energy” value came to 0.09 kcal/mol.

TCTTTCACGTGTGGCA: the “relative binding free energy” value is 0.32 kcal/mol.

Consider GGTGGCACGTGGGTTT, for which the “relative binding free energy” value is -0.06 kcal/mol.

In the case of GAGTGCACGTGGTCGT, the “relative binding free energy” value is -0.13 kcal/mol.

Take TGGGACACGTGTCCGT: the “relative binding free energy” value was 0.14 kcal/mol.

With ATTTACACGTGTTGGA, the “relative binding free energy” value amounted to 0.1 kcal/mol.

Regarding ATTCTCACGTGGTGCG, the “relative binding free energy” value was 0.23 kcal/mol.

For GGGCGCACGTGAGTGC, the “relative binding free energy” value was found to be 0.13 kcal/mol.

TTTGGCACGTGGATTA: the “relative binding free energy” value is -0.09 kcal/mol.

In the case of GCTTTCACGTGGGTGC, the “relative binding free energy” value turned out to be 0.16 kcal/mol.

On to AAGTACACGTGAGTTA, for which the “relative binding free energy” value is 0.29 kcal/mol.

Turning to TGGCTCACGTGTGCGT, the “relative binding free energy” value is 0.25 kcal/mol.

For the sequence GCGATCACGTGAGAGT, the “relative binding free energy” value turned out to be 0.45 kcal/mol.

GGTCGCACGTGTGAGC: the “relative binding free energy” value came to 0.24 kcal/mol.

Consider GTGGCCACGTGGTGAG, for which the “relative binding free energy” value was -0.01 kcal/mol.

GCGGGCACGTGGCTGG: the “relative binding free energy” value is -0.1 kcal/mol.

Turning to CGAGCCACGTGGGTGT, the “relative binding free energy” value is -0.23 kcal/mol.

ATAGTCACGTGGGGCT: the “relative binding free energy” value was -0.07 kcal/mol.

For GTTATCACGTGGGTCA, the “relative binding free energy” value turned out to be 0.17 kcal/mol.

For the sequence TTGATCACGTGTCGGT, the “relative binding free energy” value is 0.15 kcal/mol.

On to GGCGGCACGTGTGCGG, for which the “relative binding free energy” value is -0.14 kcal/mol.

Take ACTGTCACGTGGGTCA: the “relative binding free energy” value was determined as 0 kcal/mol.

Turning to GCAATCACGTGTTGGG, the “relative binding free energy” value was 0.21 kcal/mol.

TGGAACACGTGTATGA: the “relative binding free energy” value amounted to 0.06 kcal/mol.

As to GGTGCCACGTGATGGC, the “relative binding free energy” value is 0.09 kcal/mol.

In the case of ATGTACACGTGAGTGG, the “relative binding free energy” value was found to be 0.22 kcal/mol.

As to AAGGGCACGTGTTTGT, the “relative binding free energy” value is -0.16 kcal/mol.

As to AGTTTCACGTGGGTCT, the “relative binding free energy” value was 0.09 kcal/mol.

TGGCTCACGTGTGGGC: the “relative binding free energy” value came out at 0.3 kcal/mol.

With AGTAACACGTGGTTTC, the “relative binding free energy” value was -0.01 kcal/mol.

GGTCACACGTGTTTTA: the “relative binding free energy” value worked out at 0.19 kcal/mol.

Turning to GGGGACACGTGAGATT, the “relative binding free energy” value turned out to be 0.27 kcal/mol.

In the case of GGTAACACGTGGCGTG, the “relative binding free energy” value is -0.01 kcal/mol.

As for GGTATCACGTGTCGAT, the “relative binding free energy” value came to 0.22 kcal/mol.

For the sequence GGCTGCACGTGTGTGC, the “relative binding free energy” value was -0.05 kcal/mol.

GTACGCACGTGCGTGG: the “relative binding free energy” value is -0.16 kcal/mol.

As to GGTGACACGTGTGGGC, the “relative binding free energy” value was found to be 0.11 kcal/mol.

As to CTGGGCACGTGGGCCA, the “relative binding free energy” value is -0.13 kcal/mol.

TTCGGCACGTGGATGC: the “relative binding free energy” value is -0.01 kcal/mol.

As for AGGGTCACGTGAAGTG, the “relative binding free energy” value was determined as 0.3 kcal/mol.

Turning to TATTGCACGTGGTATC, the “relative binding free energy” value is -0.07 kcal/mol.

For GGGGTCACGTGCTGCA, the “relative binding free energy” value turned out to be 0.1 kcal/mol.

Turning to GGGTGCACGTGGCTCG, the “relative binding free energy” value is -0.05 kcal/mol.

With ATTTACACGTGAGGTC, the “relative binding free energy” value is 0.39 kcal/mol.

With TGTTACACGTGGAGCT, the “relative binding free energy” value was 0.15 kcal/mol.

As to CGGTGCACGTGTTTGC, the “relative binding free energy” value is -0.01 kcal/mol.

As for GATTGCACGTGGGAAG, the “relative binding free energy” value was 0.05 kcal/mol.

As to GGGTACACGTGAACGG, the “relative binding free energy” value worked out at 0.38 kcal/mol.

Regarding GGGCACACGTGAGGTT, the “relative binding free energy” value stood at 0.32 kcal/mol.

On to TTTCGCACGTGGAGTG, for which the “relative binding free energy” value is -0.13 kcal/mol.

As to GAGTTCACGTGAATGA, the “relative binding free energy” value was 0.52 kcal/mol.

As for GCTGACACGTGGTGGG, the “relative binding free energy” value came to 0.08 kcal/mol.

As to TAAGGCACGTGTGTAC, the “relative binding free energy” value is -0.07 kcal/mol.

ATAGTCACGTGTAGTT: the “relative binding free energy” value is -0.05 kcal/mol.

As to AAGTTCACGTGATATG, the “relative binding free energy” value was determined as 0.3 kcal/mol.

Regarding GGAATCACGTGGGTAT, the “relative binding free energy” value is 0.04 kcal/mol.

AAAGTCACGTGTTGTA: the “relative binding free energy” value came out at 0.1 kcal/mol.

With TTGTCCACGTGGTCGT, the “relative binding free energy” value is -0.2 kcal/mol.

In the case of GTATGCACGTGGTTTT, the “relative binding free energy” value was -0.03 kcal/mol.

With GTTATCACGTGAGCTT, the “relative binding free energy” value came to 0.39 kcal/mol.

With GTGGCCACGTGTTTGA, the “relative binding free energy” value was -0.17 kcal/mol.

Turning to GAGGTCACGTGGTCGA, the “relative binding free energy” value worked out at 0.08 kcal/mol.

On to TAAGGCACGTGGGGCA, for which the “relative binding free energy” value was -0.24 kcal/mol.

On to GGCATCACGTGTTTGG, for which the “relative binding free energy” value stood at 0.14 kcal/mol.

As to TCATGCACGTGGCGGG, the “relative binding free energy” value is -0.14 kcal/mol.

Take TTGATCACGTGTAGTT: the “relative binding free energy” value was 0.2 kcal/mol.

Turning to TGCAACACGTGGGATG, the “relative binding free energy” value is -0.06 kcal/mol.

For TATGACACGTGATAGG, the “relative binding free energy” value was determined as 0.11 kcal/mol.

As for GTTCGCACGTGGTGAT, the “relative binding free energy” value was -0.08 kcal/mol.

On to GGCTGCACGTGAAGTG, for which the “relative binding free energy” value came to 0.36 kcal/mol.

For TTTATCACGTGTTAGC, the “relative binding free energy” value amounted to 0.13 kcal/mol.

For the sequence GGGTACACGTGATTTT, the “relative binding free energy” value stood at 0.21 kcal/mol.

Consider TATTACACGTGGGGTT, for which the “relative binding free energy” value is 0.02 kcal/mol.

As for TTCGGCACGTGTGTAC, the “relative binding free energy” value worked out at 0.01 kcal/mol.

GGGGGCACGTGGGATC: the “relative binding free energy” value was -0.02 kcal/mol.

Regarding AGAAGCACGTGTTTAG, the “relative binding free energy” value was -0.09 kcal/mol.

With TTTTACACGTGTGGGG, the “relative binding free energy” value worked out at 0.21 kcal/mol.

GAGGCCACGTGGTTGC: the “relative binding free energy” value was -0.03 kcal/mol.

Regarding CGTTTCACGTGATGTC, the “relative binding free energy” value is 0.32 kcal/mol.

On to CTGGTCACGTGTAGCT, for which the “relative binding free energy” value came to 0.2 kcal/mol.

For GTGGGCACGTGTGCTT, the “relative binding free energy” value came to 0.03 kcal/mol.

Consider TGATGCACGTGTGAGC, for which the “relative binding free energy” value was 0.11 kcal/mol.

GGGCTCACGTGAGGTA: the “relative binding free energy” value came out at 0.31 kcal/mol.

As to CTAGTCACGTGTTAAT, the “relative binding free energy” value stood at 0.01 kcal/mol.

The values are drawn from the BET-seq Pho4 binding data (Le et al. 2018).
